The text below walks through data of article PMC4336329 (PLoS ONE, 2015).

The whole screen tested about 310,000 compounds, of which about 2,200 (0.71%) showed an effect of 50% or more. Effects have a minus sign here. Some of the results follow.

This experiment deals with human ether-à-go-go-related gene (hERG) potassium channel (human, UniProt Q12809). Nature of the experiment: primary screen, population patch clamp on CHO cells stably expressing hERG.
Sequence of human ether-à-go-go-related gene (hERG) potassium channel (Q12809 whole entry, looked up): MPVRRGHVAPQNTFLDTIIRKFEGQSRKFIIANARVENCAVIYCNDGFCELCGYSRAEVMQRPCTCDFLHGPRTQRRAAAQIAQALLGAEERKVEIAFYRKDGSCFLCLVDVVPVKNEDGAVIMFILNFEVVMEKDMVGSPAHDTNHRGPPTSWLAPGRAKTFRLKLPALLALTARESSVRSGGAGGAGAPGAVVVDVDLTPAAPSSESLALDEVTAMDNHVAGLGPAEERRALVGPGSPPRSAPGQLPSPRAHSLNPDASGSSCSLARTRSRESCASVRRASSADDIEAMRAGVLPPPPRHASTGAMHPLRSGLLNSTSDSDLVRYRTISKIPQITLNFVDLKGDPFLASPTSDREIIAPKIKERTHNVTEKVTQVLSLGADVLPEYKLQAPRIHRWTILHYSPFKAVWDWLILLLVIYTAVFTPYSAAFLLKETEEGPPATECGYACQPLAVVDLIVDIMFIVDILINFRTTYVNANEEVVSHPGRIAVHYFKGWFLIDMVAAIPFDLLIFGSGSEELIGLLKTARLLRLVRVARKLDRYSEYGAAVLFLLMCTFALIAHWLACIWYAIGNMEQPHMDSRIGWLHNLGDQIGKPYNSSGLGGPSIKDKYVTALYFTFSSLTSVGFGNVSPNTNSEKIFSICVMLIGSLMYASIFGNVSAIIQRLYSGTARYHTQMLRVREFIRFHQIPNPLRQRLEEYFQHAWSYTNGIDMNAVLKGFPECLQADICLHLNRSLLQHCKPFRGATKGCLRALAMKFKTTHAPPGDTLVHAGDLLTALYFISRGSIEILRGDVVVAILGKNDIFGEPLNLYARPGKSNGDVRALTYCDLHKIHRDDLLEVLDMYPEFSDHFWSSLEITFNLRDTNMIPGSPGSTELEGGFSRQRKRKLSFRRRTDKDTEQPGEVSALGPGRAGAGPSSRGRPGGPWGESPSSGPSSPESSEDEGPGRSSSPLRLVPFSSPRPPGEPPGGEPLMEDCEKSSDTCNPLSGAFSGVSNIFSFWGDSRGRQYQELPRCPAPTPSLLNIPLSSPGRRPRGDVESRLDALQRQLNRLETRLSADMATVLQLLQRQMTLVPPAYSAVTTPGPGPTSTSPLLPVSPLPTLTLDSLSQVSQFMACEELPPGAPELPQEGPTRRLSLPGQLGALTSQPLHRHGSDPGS
Take `Cn1c(=O)c2c(nc(SCC(=O)NCc3ccc4c(c3)OCO4)n2Cc2ccccc2)n(C)c1=O`: the “hERG current change (%, negative = inhibition) at 1uM” value was -3.75%. In the case of `Cc1nnc(SCC(=O)N2CCN(c3cccc(Cl)c3)CC2)n1C1CC1` it was 1.99%; in that of `COc1cccc(CN(C)C(=O)c2cc(-c3ccc(F)cc3)nc3ccccc23)c1`, 9.71%. The figure for `COc1ccc(CNC(=O)CCn2c(C)csc2=O)cc1` is 5.75%; for `CN1CCN(NC(=O)c2cc(Br)ccc2Cl)CC1` it is 11.9%; for `O=C1CCN(C(=S)NCCc2ccccc2)CC1` it is 6.51%. Regarding `COc1cccc(OC)c1C(=O)NC(=O)NNc1cc(C(F)(F)F)cc(C)n1`, the “hERG current change (%, negative = inhibition) at 1uM” value is 8.5%.

As to `CC1Cc2ccccc2N1C(=O)CSc1nnc(Cn2nnc3ccccc32)n1C` (stereo not drawn), the “hERG current change (%, negative = inhibition) at 1uM” value was -5.43%. In the case of `O=C1OC2CCC1(c1ccccc1)C2` (stereo not drawn) it was 13.2%. As for `COCCOC(=O)c1c(N)n(Cc2ccco2)c2nc3ccccc3nc12`, the “hERG current change (%, negative = inhibition) at 1uM” value was -16.5%.

As for `COc1cc(COC(=O)c2cnc(C)cn2)c(OC)cc1Br`, the “hERG current change (%, negative = inhibition) at 1uM” value turned out to be 24.3%. The figure for `N#C/C(=C\Nc1ccc(Cl)cn1)S(=O)(=O)c1ccccn1` is 14.6%; for `CC1(C)OC(=O)C(=NNc2ccc(Br)cc2)C(=O)O1` it is 4.08%. `COc1ccc(-c2cn(CCO)c(-c3ccc(Cl)nc3)n2)cc1`: the “hERG current change (%, negative = inhibition) at 1uM” value was 4.56%. The figure for `O=C(O)C1CCN(C(=O)Cc2ccccc2)CC1` is 15.5%; for `COc1cc2c(cc1NC(=O)c1ccc(C)c([N+](=O)[O-])c1)oc1ccccc12` it is 8.7%. As to `CC1CCCC(NC(=O)COC(=O)c2cn(C)c3ccccc23)C1C` (stereo not drawn), the “hERG current change (%, negative = inhibition) at 1uM” value was found to be 12.6%. In the case of `O=c1cc(-c2ccccc2Cl)c2c([nH]1)CCC2` it was 19.2%. The figure for `CCOc1cc(C)nc(Oc2ccc(=O)[nH]n2)n1` is 6.64%. The figure for `CCOc1cc(/C=C(\C(=O)O)c2ccc(S(=O)(=O)N3CCCC3)s2)ccc1OC` is 11.3%. Turning to `COC(=O)c1cc2sccc2n1CC(=O)N1CCCc2ccccc21`, the “hERG current change (%, negative = inhibition) at 1uM” value is reported as -4.85%. Consider `CCCCOc1ccc(CSCCNC(=S)Nc2ccccc2)cc1`, for which the “hERG current change (%, negative = inhibition) at 1uM” value came to 11.9%. In the case of `COc1cc(OC)cc(C(=O)N2CCN(Cc3cccc(F)c3)CC2)c1.O=C(O)C(=O)O`, the “hERG current change (%, negative = inhibition) at 1uM” value is -4.24%. In the case of `Cc1cccc2sc(NNC(=O)c3cc(-c4cccs4)nc4ccccc34)nc12`, the “hERG current change (%, negative = inhibition) at 1uM” value was determined as 11%. In the case of `Cc1cc(Br)ccc1NC(=O)CN(C)C(=O)CCSc1ccc(F)cc1` it was 10.9%; in that of `COc1ccc(C2=NCCc3cc(OC)c(OC)cc32)cc1OC`, 7.59%; in that of `O=C(Nc1ccc(CN2CCCCC2)cc1)c1sc2ccccc2c1Cl`, 11.6%.

As to `N=c1c(S(=O)(=O)c2ccccc2)cc2c(=O)n3ccccc3nc2n1Cc1ccco1`, the “hERG current change (%, negative = inhibition) at 1uM” value is 18.6%. For the molecule `COc1ccc(CNC(=O)CCC(=O)N2C[C@H]3C[C@H](C2)c2cccc(=O)n2C3)cc1OC`, the “hERG current change (%, negative = inhibition) at 1uM” value was 9.12%. With `Cc1nn(C)c(=O)n1-c1ccc(Oc2ccccc2)cc1`, the “hERG current change (%, negative = inhibition) at 1uM” value was found to be 13.7%. `CC1CC(=O)N(CC(=O)NCc2ccccc2)c2ccccc2S1(=O)=O` (stereo not drawn): the “hERG current change (%, negative = inhibition) at 1uM” value is listed as 10.8%. As for `CC(C)(C)c1cc(C(=O)N/N=C/c2ccc(F)cc2)n(-c2ccccc2)n1`, the “hERG current change (%, negative = inhibition) at 1uM” value was -6.32%. In the case of `COc1ccc(OCC(=O)N2CCN(C(=O)c3ccco3)CC2)cc1` it was -14.5%. Take `Cc1cc(=O)[nH]c(COc2ccccc2)n1`: the “hERG current change (%, negative = inhibition) at 1uM” value is 13%. In the case of `Cc1cc(C)cc(-c2nnc(SCC(=O)c3ccc4c(c3)OCCO4)o2)c1` it was 16%. The figure for `C=CCOc1ccc(C2NC(=S)NC3=C2CCc2ccccc23)cc1` (stereo not drawn) is 4.53%; for `O=S(=O)(Nc1cccc(-c2cn3cccnc3n2)c1)c1ccc(Cl)cc1` it is 6.74%.

Consider `Cc1[nH]n(-c2cccc3ccccc23)c(=O)c1C=Nc1ccc2[nH]c(=O)[nH]c2c1`, for which the “hERG current change (%, negative = inhibition) at 1uM” value is reported as 9.98%. The figure for `O=S(=O)(c1ccc(Cl)cc1)N1CCN2CCCC2C1` (stereo not drawn) is 10.5%; for `O=C(CCN1C(=O)/C(=C/c2ccc(F)cc2)SC1=S)NNC(=O)c1cccnc1` it is 1.06%; for `Cc1nn(C)c(N)c1-c1ccccc1` it is 3.31%.

Consider `Cc1ccc2c(c1)COc1c3ccc(C(=O)N4CCCCC4)cc3nn1-2`, for which the “hERG current change (%, negative = inhibition) at 1uM” value was found to be 5.17%. The figure for `CCOC(=O)c1cc(C(=O)Nc2ccc(S(=O)(=O)Nc3ccc(OC)cc3)cc2)nn1C` is 17.8%. In the case of `Cc1ccc(S(=O)(=O)NCc2cccnc2)c(C)c1` it was 13%. In the case of `CCSc1nc2ccccc2n1C(=O)/C=C/c1ccc(OC)c(OC)c1` it was 2.17%.

Take `Cc1cc2c(cc1S(=O)(=O)N1CCN(c3cccc(C(F)(F)F)c3)CC1)OCC(=O)N2`: the “hERG current change (%, negative = inhibition) at 1uM” value was determined as 12.3%. Consider `O=C1c2ccc3c4c(ccc(c24)C(=O)N1c1cccc(O)c1)CC3`, for which the “hERG current change (%, negative = inhibition) at 1uM” value was 3.82%. For the molecule `O=C1/C(=C\c2ccc([N+](=O)[O-])cc2)CCc2ccccc21`, the “hERG current change (%, negative = inhibition) at 1uM” value is on record as 9.66%.

With `O=C(CC1C(=O)NCCN1Cc1ccccn1)NCCc1ccccc1F` (stereo not drawn), the “hERG current change (%, negative = inhibition) at 1uM” value came to 12.6%. In the case of `O=C(C[n+]1ccc2ccccc2c1)c1ccccc1.[Br-]` it was 5.95%; in that of `COc1ccc(-c2nc(CS(=O)(=O)CC(=O)NCc3cccc(F)c3)c(C)o2)cc1`, 9.79%; in that of `CCc1cccc(Oc2nn[nH]n2)c1`, 1.13%. For `COc1cc(C(C(=O)NC2CCCC2)N(C(=O)Cc2cccs2)C2CC2)cc(OC)c1OC` (stereo not drawn), the “hERG current change (%, negative = inhibition) at 1uM” value is recorded as 9.2%. In the case of `O=C(Nc1ccc(S(=O)(=O)C(F)F)cc1)c1ccc2c(=O)n3c(nc2c1)CCC3` it was 19.4%. Take `CN(Cc1c(C(=O)N/N=C/c2ccc(F)cc2)nnn1-c1nonc1N)C1CCCCC1`: the “hERG current change (%, negative = inhibition) at 1uM” value was 3.86%. As for `CCN(C1CCCCC1)S(=O)(=O)c1cn(C)c(=O)n(C)c1=O`, the “hERG current change (%, negative = inhibition) at 1uM” value came out at 7.04%. The figure for `NCCCC[C@H]1CN=C(N)N1CCC12CC3CC(CC(C3)C1)C2` is 18.2%.
